Residue numbers refer to the chain shown, from its start. The list shows a part of the results.
T1: RBFOX1 RRM (Homo sapiens, UniProt Q9NWB1 109-208)
T1 sequence: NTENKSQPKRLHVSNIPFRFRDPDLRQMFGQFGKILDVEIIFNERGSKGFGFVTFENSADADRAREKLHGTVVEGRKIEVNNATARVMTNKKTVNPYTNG

B1: GAUCCAG (DNA:RNA)
RNA: GGGAGACCGGAAUUCAGAUUGUCCGAUCCAGUUAAAUCCCGUCGUAGCCACCA
DNA 1: CAATCTGAATTCCGGTCTCCC
DNA 2: TGGTGGCTACGACGGGATT
B2: UUGGGUG (DNA:RNA)
RNA: B1 RNA with G25U, A26U, U27G, C28G, C29G, A30U
DNA 1: CAATCTGAATTCCGGTCTCCC
DNA 2: TGGTGGCTACGACGGGATT
B3: CGUGGUA (DNA:RNA)
RNA: B1 RNA with G25C, A26G, C28G, C29G, A30U, G31A
DNA 1: CAATCTGAATTCCGGTCTCCC
DNA 2: TGGTGGCTACGACGGGATT
B4: GCGGCUG (DNA:RNA)
RNA: B1 RNA with A26C, U27G, C28G, A30U
DNA 1: CAATCTGAATTCCGGTCTCCC
DNA 2: TGGTGGCTACGACGGGATT
B5: AGAGGGU (DNA:RNA)
RNA: GGGAGACCGGAAUUCAGAUUGUCCAGAGGGUUUAAAUCCCGUCGUAGCCACCA
DNA 1: CAATCTGAATTCCGGTCTCCC
DNA 2: TGGTGGCTACGACGGGATT
B6: GGGACCG (DNA:RNA)
RNA: B1 RNA with A26G, U27G, C28A, A30C
DNA 1: CAATCTGAATTCCGGTCTCCC
DNA 2: TGGTGGCTACGACGGGATT
B7: AGGUGCG (DNA:RNA)
RNA: B5 RNA with A27G, G28U, G30C, U31G
DNA 1: CAATCTGAATTCCGGTCTCCC
DNA 2: TGGTGGCTACGACGGGATT
B8: GGGGUAG (DNA:RNA)
RNA: B1 RNA with A26G, U27G, C28G, C29U
DNA 1: CAATCTGAATTCCGGTCTCCC
DNA 2: TGGTGGCTACGACGGGATT
B9: GCCUGUU (DNA:RNA)
RNA: B5 RNA with A25G, G26C, A27C, G28U, G30U
DNA 1: CAATCTGAATTCCGGTCTCCC
DNA 2: TGGTGGCTACGACGGGATT
B10: ACGCCGA (DNA:RNA)
RNA: B5 RNA with G26C, A27G, G28C, G29C, U31A
DNA 1: CAATCTGAATTCCGGTCTCCC
DNA 2: TGGTGGCTACGACGGGATT
B11: CACUAAU (DNA:RNA)
RNA: B1 RNA with G25C, U27C, C28U, C29A, G31U
DNA 1: CAATCTGAATTCCGGTCTCCC
DNA 2: TGGTGGCTACGACGGGATT
B12: CAAUGUC (DNA:RNA)
RNA: B5 RNA with A25C, G26A, G28U, G30U, U31C
DNA 1: CAATCTGAATTCCGGTCTCCC
DNA 2: TGGTGGCTACGACGGGATT
B13: GCUUAUA (DNA:RNA)
RNA: B1 RNA with A26C, C28U, C29A, A30U, G31A
DNA 1: CAATCTGAATTCCGGTCTCCC
DNA 2: TGGTGGCTACGACGGGATT
B14: CCUUCCG (DNA:RNA)
RNA: B1 RNA with G25C, A26C, C28U, A30C
DNA 1: CAATCTGAATTCCGGTCTCCC
DNA 2: TGGTGGCTACGACGGGATT
B15: AAUAUUC (DNA:RNA)
RNA: B1 RNA with G25A, C28A, C29U, A30U, G31C
DNA 1: CAATCTGAATTCCGGTCTCCC
DNA 2: TGGTGGCTACGACGGGATT
B16: UGAUCUA (DNA:RNA)
RNA: B5 RNA with A25U, G28U, G29C, G30U, U31A
DNA 1: CAATCTGAATTCCGGTCTCCC
DNA 2: TGGTGGCTACGACGGGATT
B17: CAACUGG (DNA:RNA)
RNA: B1 RNA with G25C, U27A, C29U, A30G
DNA 1: CAATCTGAATTCCGGTCTCCC
DNA 2: TGGTGGCTACGACGGGATT
B18: UCGGGUG (DNA:RNA)
RNA: B5 RNA with A25U, G26C, A27G, G30U, U31G
DNA 1: CAATCTGAATTCCGGTCTCCC
DNA 2: TGGTGGCTACGACGGGATT
B19: UGGCACA (DNA:RNA)
RNA: B5 RNA with A25U, A27G, G28C, G29A, G30C, U31A
DNA 1: CAATCTGAATTCCGGTCTCCC
DNA 2: TGGTGGCTACGACGGGATT
B20: CUUUCCG (DNA:RNA)
RNA: B1 RNA with G25C, A26U, C28U, A30C
DNA 1: CAATCTGAATTCCGGTCTCCC
DNA 2: TGGTGGCTACGACGGGATT
B21: AUCUCCG (DNA:RNA)
RNA: B1 RNA with G25A, A26U, U27C, C28U, A30C
DNA 1: CAATCTGAATTCCGGTCTCCC
DNA 2: TGGTGGCTACGACGGGATT
B22: UGUGCUA (DNA:RNA)
RNA: B5 RNA with A25U, A27U, G29C, G30U, U31A
DNA 1: CAATCTGAATTCCGGTCTCCC
DNA 2: TGGTGGCTACGACGGGATT
B23: GACUCCG (DNA:RNA)
RNA: B1 RNA with U27C, C28U, A30C
DNA 1: CAATCTGAATTCCGGTCTCCC
DNA 2: TGGTGGCTACGACGGGATT
B24: GCUUUCA (DNA:RNA)
RNA: B1 RNA with A26C, C28U, C29U, A30C, G31A
DNA 1: CAATCTGAATTCCGGTCTCCC
DNA 2: TGGTGGCTACGACGGGATT
B25: GCAGCGG (DNA:RNA)
RNA: B5 RNA with A25G, G26C, G29C, U31G
DNA 1: CAATCTGAATTCCGGTCTCCC
DNA 2: TGGTGGCTACGACGGGATT
B26: GCUACUU (DNA:RNA)
RNA: B1 RNA with A26C, C28A, A30U, G31U
DNA 1: CAATCTGAATTCCGGTCTCCC
DNA 2: TGGTGGCTACGACGGGATT
B27: GCUCACG (DNA:RNA)
RNA: B1 RNA with A26C, C29A, A30C
DNA 1: CAATCTGAATTCCGGTCTCCC
DNA 2: TGGTGGCTACGACGGGATT
B28: AGAUAAC (DNA:RNA)
RNA: B5 RNA with G28U, G29A, G30A, U31C
DNA 1: CAATCTGAATTCCGGTCTCCC
DNA 2: TGGTGGCTACGACGGGATT
B29: GCUUACA (DNA:RNA)
RNA: B1 RNA with A26C, C28U, C29A, A30C, G31A
DNA 1: CAATCTGAATTCCGGTCTCCC
DNA 2: TGGTGGCTACGACGGGATT
B30: GCUACCG (DNA:RNA)
RNA: B1 RNA with A26C, C28A, A30C
DNA 1: CAATCTGAATTCCGGTCTCCC
DNA 2: TGGTGGCTACGACGGGATT
B31: CACAGAG (DNA:RNA)
RNA: B1 RNA with G25C, U27C, C28A, C29G
DNA 1: CAATCTGAATTCCGGTCTCCC
DNA 2: TGGTGGCTACGACGGGATT

These binders were tested against T1, RBFOX1 RRM (assay: EMSA; HiTS-Eq, 1 nM pool, 10 min; buffer printed only for the single-RNA assays: 10 mM Tris pH 7.5, 150 mM NaCl, 3.4 mM EDTA, 0.001% NP-40, 30 C). Details: tags: His6 N-terminal (pET28a); label: 5' 32P.
In short: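 These values rest on relative association constants, computed from read-count changes of each RNA species versus the control reaction and normalised to the cognate motif. Reads came from free RNA recovered by 8% native PAGE after purified RbFox RRM (wild type or mutant) at increasing concentrations was equilibrated for 10 min in 50 µL with 1 nM of a 5′-radiolabelled pool with 7 randomized nucleotides and DNA-annealed flanks.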

Binder	binding signal
B1	0.00984 KA relative to UGCAUGU
B2	0.0408 KA relative to UGCAUGU
B3	0.0128 KA relative to UGCAUGU
B4	0.0233 KA relative to UGCAUGU
B5	0.0088 KA relative to UGCAUGU
B6	0.0273 KA relative to UGCAUGU
B7	0.0146 KA relative to UGCAUGU
B8	0.027 KA relative to UGCAUGU
B9	0.0238 KA relative to UGCAUGU
B10	0.00551 KA relative to UGCAUGU
B11	0.00175 KA relative to UGCAUGU
B12	0.00749 KA relative to UGCAUGU
B13	0.00444 KA relative to UGCAUGU
B14	0.00796 KA relative to UGCAUGU
B15	0.00124 KA relative to UGCAUGU
B16	0.0112 KA relative to UGCAUGU

Binder	binding signal
B17	0.00817 KA relative to UGCAUGU
B18	0.0226 KA relative to UGCAUGU
B19	0.0101 KA relative to UGCAUGU
B20	0.00704 KA relative to UGCAUGU
B21	0.0015 KA relative to UGCAUGU
B22	0.0149 KA relative to UGCAUGU
B23	0.00654 KA relative to UGCAUGU
B24	0.013 KA relative to UGCAUGU
B25	0.0215 KA relative to UGCAUGU
B26	0.0127 KA relative to UGCAUGU
B27	0.00666 KA relative to UGCAUGU
B28	0.00125 KA relative to UGCAUGU
B29	0.00617 KA relative to UGCAUGU
B30	0.0127 KA relative to UGCAUGU
B31	0.0031 KA relative to UGCAUGU
